From the supplement of paper PMC3334620
The full ranking holds about 33,000 sequences; the median of “E-score (-0.5 to 0.5)” is about -0.032, and the highest 2% start at about 0.36. The list shows a part of the results.

target: T1, Sko1 (UniProt Q02100); test: PBM E-score (8-mer binding enrichment) (E-score (-0.5 to 0.5)); higher = stronger / more preferred TF binding; most listed sequences are background and not binding sites; conditions: protein concentration: 200 nM; construct: GST-full length
T1 sequence: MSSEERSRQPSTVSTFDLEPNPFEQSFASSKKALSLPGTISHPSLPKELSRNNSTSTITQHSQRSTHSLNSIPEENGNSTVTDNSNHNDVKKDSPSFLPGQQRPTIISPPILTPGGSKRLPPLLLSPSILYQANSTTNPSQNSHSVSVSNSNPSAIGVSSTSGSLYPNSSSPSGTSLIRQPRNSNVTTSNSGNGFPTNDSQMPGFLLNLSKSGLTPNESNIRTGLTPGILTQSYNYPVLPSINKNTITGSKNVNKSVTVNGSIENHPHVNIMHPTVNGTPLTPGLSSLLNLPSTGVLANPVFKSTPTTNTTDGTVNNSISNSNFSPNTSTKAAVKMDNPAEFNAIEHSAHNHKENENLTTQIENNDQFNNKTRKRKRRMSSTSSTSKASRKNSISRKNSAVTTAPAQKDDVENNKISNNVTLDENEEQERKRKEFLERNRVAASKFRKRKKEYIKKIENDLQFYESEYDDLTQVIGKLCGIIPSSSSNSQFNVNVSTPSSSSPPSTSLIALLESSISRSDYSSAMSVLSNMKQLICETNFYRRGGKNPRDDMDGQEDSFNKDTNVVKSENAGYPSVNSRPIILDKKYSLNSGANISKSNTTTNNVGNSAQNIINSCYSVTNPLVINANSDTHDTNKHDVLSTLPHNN
Summary of the method: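 PURExpress in vitro transcription/translation supplied GST-tagged yeast transcription factors, either full-length or DNA-binding domain. Applied at about 100-200 nM to universal all-10-mer Agilent arrays double-stranded by primer extension, the bound protein was detected with fluorescent anti-GST. E-scores, modified Wilcoxon-Mann-Whitney statistics, were given by the Universal PBM Analysis Suite to ungapped eight-base words pooled with their reverse complements after masliner normalisation.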

Sequence	PBM E-score
CACCCTCA	-0.264
ACGCCCGG	-0.174
GGGTTTTA	-0.163
AAGTCTTG	-0.133
CGGGGCTA	-0.13
CTTTACTC	0.266
AGAGGAAG	-0.228
CTCCAAGC	-0.181
GGGCGCGA	-0.192
CATACATG	0.206
ATGTTACG	0.354
ACTCGCAA	0.145
CAGCCTCC	-0.266
CCCGCGGC	-0.0957
CCCTCAGC	-0.292
AAATCACG	0.31
AGCCCCGG	-0.388
GGCCTCAA	-0.154
CGTGAGAC	0.068
GATCAACA	0.156
AAACCTGG	-0.17
CACGAGCA	-0.128
ATCCGCGC	-0.148
TCCGCAGA	-0.234
AATCTCGG	-0.0407

Sequence	PBM E-score
GTAAGACA	0.247
TATTTAAA	0.171
AGTTCCAA	-0.0785
AATTGCAC	-0.012
CGTACTGC	0.128
GGGACCGA	-0.248
GGTATTAC	0.204
AAACAAGG	-0.131
AATACCCA	-0.178
ATCCATTC	0.124
AAAGCGAA	-0.0627
CATTGGGG	-0.136
CAGGGTTC	-0.213
AGTCTAGG	-0.16
AGGGGCAA	-0.206
AAGTGATG	0.184
AGTGTTGA	0.0585
GCACCGAA	-0.0742
AATTCGAG	-0.122
ATCCTTGG	-0.0708
AGAAAAAA	0.15
CCATTTAA	0.191
CACTCAGC	-0.0479
AACTCGTC	0.194
ACTTCTCG	0.0277

Sequence	PBM E-score
AAGACTGT	-0.142
GGATTCGA	-0.167
AAGTTGAG	0.0441
CAGGTCGA	-0.152
ACGAAACC	0.288
CGCGATGC	-0.196
CATATCGG	-0.166
ACAGGTGA	-0.0861
AGGGTCCG	-0.311
AGTTCCCA	-0.0417
CTTCTCCA	-0.271
CAAATATA	0.166
CAGGACGC	0.0652
TGTGTCAA	0.0936
CAGGGGGC	-0.381
AGCGGTAG	-0.173
GCCCGCGA	-0.222
AAAATCGG	-0.0745
ACCTGTAT	-0.105
GTCCTGGA	-0.105
CCGCGTTC	-0.0912
GACGATGA	0.199
GACGTTTA	0.386
CTGTCTAC	0.175
GAAAAATC	-0.0547

Sequence	PBM E-score
ACTGGCCG	-0.336
AGGATGTA	0.0495
CGTAGAAC	-0.0169
ATAGAAGC	0.0681
ACAATCTC	0.00919
AACTCACC	-0.0504
TAAGCAAA	0.168
CAGTACCG	-0.18
GTTTGAGA	-0.0431
GCAACGGA	0.0479
GAGCAGCC	-0.199
GTATGTCA	0.398
AGCCGTAA	0.134
CCTGCTAA	-0.252
GCGCACCA	0.0867
TCTAAACA	0.0278
ACAGCCAG	-0.0717
ATTCATCA	0.278
ACTCTTCC	-0.0697
AACACTGG	-0.0525
CGATGGAA	0.106
ACGCGGCC	-0.2
CGGAAGGC	-0.266
ATAAGAGC	-0.0368
GAAGACCA	-0.193

Sequence	PBM E-score
GAGTAGAA	0.03
AGGTAGTA	-0.0365
ACGCAGCG	0.211
CAGCCCGA	-0.19
ATGCGACG	0.186
AGTCATTC	0.135
AGGAACAC	0.0921
CTTACGAA	0.275
GAGGGCAA	-0.147
TACTGGCA	-0.063
AACCTACA	0.0865
CACCTAGA	-0.0625
TACTCGGA	0.0485
AAGAGGAT	-0.176
ACAAGATC	-0.106
CTATGCAG	-0.0536
AAAATTGT	0.112
GACGTGCC	0.266
TCCCTGCA	-0.151
ATTAACGG	-0.118
GTTGAGAA	-0.0386
AGGGGGTC	-0.404
ATGGCCTA	-0.0612
GACCAATC	-0.0473
GTACTGCA	-0.169

Sequence	PBM E-score
ACTGCTCT	-0.0895
GTGTCAGA	-0.06
CCCGGGAG	-0.232
AATAGTGC	-0.0797
CATAAGTC	0.034
CTACATCC	-0.0667
CAGTACAC	0.0502
CCCCAACC	-0.062
GGACGTCC	-0.151
GAAATGCC	-0.136
AGAAAGAC	-0.0145
CAGAACAG	-0.0484
GATTTCGA	0.0339
AGCGGTGA	-0.0427
ACTAAGAG	-0.113
AGTAATAA	0.232
CGCATGCA	0.156
AGGCCGTA	-0.00353
AGTCACGA	0.103
CCGGAGGC	-0.309
CTCTCACA	-0.0188
CGTTACTA	0.127
CTGTGAGA	-0.0611
AAGCGCTC	-0.0872
GTGTGCCA	0.164

Sequence	PBM E-score
AAGTCAAT	-0.00377
ATTATCCG	0.0708
ATTCCTAC	0.0535
AAGACCGA	-0.0514
AGCGCTAT	0.144
GCAGTTCA	-0.0145
CGTTCTGA	0.174
CCGGGTTA	-0.209
AGAACTCG	0.0952
CAGGTTTC	-0.0189
CTCATTCC	-0.0322
ACATACCA	-0.0223
GGTCGGGA	-0.22
CCGGATCG	-0.225
ACGTAACT	0.459
AACGTTAT	0.368
ATTGCGGG	-0.0411
AGTATTTG	0.00607
GATGACGC	0.473
AGAGCAAC	-0.094
GAAAGACA	0.143
CGCATGGC	-0.0485
